# Experimental data as given in the supplement of paper PMC8728848.
# The list shows a part of the results.
# B1: Lmo1413 (Listeria monocytogenes), Q8Y783 (protein)
# chain: MKHAKKSLFTFIIFMTILSITFNPFSAKAAPLMLNLPAPQVDQLYIGDDYITGKLQQEVPMHYPGNAAYVLFNNKQYNITDYTVENDVNFRLKLPKTLEAGDTLNYFTITGNVLDPVAYPGQESYKLAGPFSPIEKANIQVNYVDETNQTLATSDTLSGKLGETYTTSPKAIDGYQVKETPTNATGTYTTNTETIQINYVYEKTAVEGANVSVEYINEATNESIAPTETLSGKIGTTFQAEVKEIDGYELSQVPSNQSGTYTDQTQSVIFKYKKITTPDEVAKDVTVTYKDTKGNQLADPVILKGDIGSTFETEAKSFKGYKLTKTPSNHSSVFTSDSQEVEYVYSKDDAVITPPVTPVNPDKPIINPVKPVNPATSTVPNKNISKKNTTKTVNQTGKTSTALQLPKTGDSENNLPLIIGVSLLISGVYIFTTRRKRVK
# Experiments:
# Assay in all cases: glycan array binding signal (z-score within array); higher = stronger binding
# Settings in all cases: glycan notation: IUPAC condensed, linker removed
# [1] = molecular target: Gal(b1-3)[Neu5Ac(a2-6)]GalNAc
# Procedure, shortened: (§1)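 Glycan array data were curated from 3228 arrays in the Consortium for Functional Glycomics database and kept only where the protein sequence was available. Glycan names were converted to IUPAC-condensed notation, and columns mapping to the same glycan were averaged. The binding signal is a within-array Z-score, averaged across arrays of the same protein sequence at different concentrations or buffers and across linkers. Negative Z-scores can be read as non-binding.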
# [2] = molecular target: Gal(b1-3)[Neu5Ac(a2-6)]GlcNAc(b1-6)Gal(b1-4)Glc
# Procedure, shortened: as §1
# [3] = molecular target: Gal(b1-3)[Neu5Ac(b2-6)]GalNAc
# Procedure, shortened: as §1
# [4] = molecular target: Gal(b1-4)GalNAc(a1-3)[Fuc(a1-2)]Gal(b1-4)GlcNAc
# Procedure, shortened: as §1
# [5] = molecular target: Gal(b1-4)GalNAc(b1-3)[Fuc(a1-2)]Gal(b1-4)GlcNAc
# Procedure, shortened: as §1
# Gal(b1-4)Glc = molecular target: Gal(b1-4)Glc
# Procedure, shortened: as §1
# Gal(b1-4)Glc6S = molecular target: Gal(b1-4)Glc6S
# Procedure, shortened: as §1
# Gal(b1-4)GlcNAc = molecular target: Gal(b1-4)GlcNAc
# Procedure, shortened: as §1
# [6] = molecular target: Gal(b1-4)GlcNAc(a1-6)Gal(b1-4)GlcNAc
# Procedure, shortened: as §1
# [7] = molecular target: Gal(b1-4)GlcNAc(b1-2)Man(a1-3)Man(b1-4)GlcNAc(b1-4)GlcNAc
# Procedure, shortened: as §1
# [8] = molecular target: Gal(b1-4)GlcNAc(b1-2)Man(a1-3)[Gal(b1-4)GlcNAc(b1-2)Man(a1-6)]Man(b1-4)GlcNAc(b1-4)GlcNAc
# Procedure, shortened: as §1
# [9] = molecular target: Gal(b1-4)GlcNAc(b1-2)Man(a1-3)[Gal(b1-4)GlcNAc(b1-2)Man(a1-6)]Man(b1-4)GlcNAc(b1-4)[Fuc(a1-6)]GlcNAc
# Procedure, shortened: as §1
# [10] = molecular target: Gal(b1-4)GlcNAc(b1-2)Man(a1-3)[GlcNAc(b1-2)Man(a1-6)]Man(b1-4)GlcNAc(b1-4)GlcNAc
# Procedure, shortened: as §1
# [11] = molecular target: Gal(b1-4)GlcNAc(b1-2)Man(a1-3)[Man(a1-6)]Man(b1-4)GlcNAc(b1-4)GlcNAc
# Procedure, shortened: as §1
# [12] = molecular target: Gal(b1-4)GlcNAc(b1-2)Man(a1-6)Man(b1-4)GlcNAc(b1-4)GlcNAc
# Procedure, shortened: as §1
# [13] = molecular target: Gal(b1-4)GlcNAc(b1-2)Man(a1-6)[GlcNAc(b1-2)Man(a1-3)]Man(b1-4)GlcNAc(b1-4)GlcNAc
# Procedure, shortened: as §1
# [14] = molecular target: Gal(b1-4)GlcNAc(b1-2)Man(a1-6)[Man(a1-3)]Man(b1-4)GlcNAc(b1-4)GlcNAc
# Procedure, shortened: as §1
# [15] = molecular target: Gal(b1-4)GlcNAc(b1-2)[Gal(b1-4)GlcNAc(b1-4)]Man(a1-3)[Gal(b1-4)GlcNAc(b1-2)Man(a1-6)]Man(b1-4)GlcNAc(b1-4)GlcNAc
# Procedure, shortened: as §1
# [16] = molecular target: Gal(b1-4)GlcNAc(b1-2)[Gal(b1-4)GlcNAc(b1-4)]Man(a1-3)[Gal(b1-4)GlcNAc(b1-2)[Gal(b1-4)GlcNAc(b1-6)]Man(a1-6)]Man(b1-4)GlcNAc(b1-4)GlcNAc
# Procedure, shortened: as §1
# [17] = molecular target: Gal(b1-4)GlcNAc(b1-3)Gal(b1-3)GlcNAc
# Procedure, shortened: as §1
# [18] = molecular target: Gal(b1-4)GlcNAc(b1-3)Gal(b1-4)Glc
# Procedure, shortened: as §1
# [19] = molecular target: Gal(b1-4)GlcNAc(b1-3)Gal(b1-4)GlcNAc
# Procedure, shortened: as §1
# [20] = molecular target: Gal(b1-4)GlcNAc(b1-3)Gal(b1-4)GlcNAc(b1-3)Gal(b1-4)GlcNAc
# Procedure, shortened: as §1
# [21] = molecular target: Gal(b1-4)GlcNAc(b1-3)Gal(b1-4)[Fuc(a1-3)]GlcNAc(b1-3)Gal(b1-4)[Fuc(a1-3)]GlcNAc
# Procedure, shortened: as §1
# [22] = molecular target: Gal(b1-4)GlcNAc(b1-3)GalNAc
# Procedure, shortened: as §1
# [23] = molecular target: Gal(b1-4)GlcNAc(b1-3)[Gal(b1-4)GlcNAc(b1-6)]Gal(b1-4)GlcNAc
# Procedure, shortened: as §1
# [24] = molecular target: Gal(b1-4)GlcNAc(b1-3)[Gal(b1-4)GlcNAc(b1-6)]GalNAc
# Procedure, shortened: as §1
# [25] = molecular target: Gal(b1-4)GlcNAc(b1-3)[GlcNAc(b1-6)]Gal(b1-4)GlcNAc
# Procedure, shortened: as §1
# [26] = molecular target: Gal(b1-4)GlcNAc(b1-6)Gal(b1-4)GlcNAc
# Procedure, shortened: as §1
# [27] = molecular target: Gal(b1-4)GlcNAc(b1-6)GalNAc
# Procedure, shortened: as §1
# [28] = molecular target: Gal(b1-4)GlcNAc(b1-6)[Gal(b1-3)]GalNAc
# Procedure, shortened: as §1
# Gal3S(b1-3)GalNAc = molecular target: Gal3S(b1-3)GalNAc
# Procedure, shortened: as §1
# Gal3S(b1-3)GlcNAc = molecular target: Gal3S(b1-3)GlcNAc
# Procedure, shortened: as §1
# [29] = molecular target: Gal3S(b1-3)[Fuc(a1-4)]GlcNAc
# Procedure, shortened: as §1
# Gal3S(b1-4)Glc = molecular target: Gal3S(b1-4)Glc
# Procedure, shortened: as §1
# Gal3S(b1-4)Glc6S = molecular target: Gal3S(b1-4)Glc6S
# Procedure, shortened: as §1
# Gal3S(b1-4)GlcNAc = molecular target: Gal3S(b1-4)GlcNAc
# Procedure, shortened: as §1
# Gal3S(b1-4)GlcNAc6S = molecular target: Gal3S(b1-4)GlcNAc6S
# Procedure, shortened: as §1
binder,measurement,setting,value
B1,glycan array binding signal (z-score),[1],0.182
same,glycan array binding signal (z-score),[2],-0.113
same,glycan array binding signal (z-score),[3],2.02
same,glycan array binding signal (z-score),[4],0.26
same,glycan array binding signal (z-score),[5],0.144
same,glycan array binding signal (z-score),Gal(b1-4)Glc,0.007
same,glycan array binding signal (z-score),Gal(b1-4)Glc6S,0.199
same,glycan array binding signal (z-score),Gal(b1-4)GlcNAc,-0.099
same,glycan array binding signal (z-score),[6],0.12
same,glycan array binding signal (z-score),[7],-0.199
same,glycan array binding signal (z-score),[8],-0.24
same,glycan array binding signal (z-score),[9],-0.264
same,glycan array binding signal (z-score),[10],-0.192
same,glycan array binding signal (z-score),[11],-0.229
same,glycan array binding signal (z-score),[12],-0.247
same,glycan array binding signal (z-score),[13],-0.269
same,glycan array binding signal (z-score),[14],-0.244
same,glycan array binding signal (z-score),[15],-0.188
same,glycan array binding signal (z-score),[16],-0.254
same,glycan array binding signal (z-score),[17],-0.238
same,glycan array binding signal (z-score),[18],-0.055
same,glycan array binding signal (z-score),[19],-0.146
same,glycan array binding signal (z-score),[20],-0.045
same,glycan array binding signal (z-score),[21],-0.21
same,glycan array binding signal (z-score),[22],-0.159
same,glycan array binding signal (z-score),[23],-0.176
same,glycan array binding signal (z-score),[24],-0.234
same,glycan array binding signal (z-score),[25],0.359
same,glycan array binding signal (z-score),[26],0.233
same,glycan array binding signal (z-score),[27],0.3
same,glycan array binding signal (z-score),[28],-0.058
same,glycan array binding signal (z-score),Gal3S(b1-3)GalNAc,0.564
same,glycan array binding signal (z-score),Gal3S(b1-3)GlcNAc,-0.101
same,glycan array binding signal (z-score),[29],-0.055
same,glycan array binding signal (z-score),Gal3S(b1-4)Glc,-0.163
same,glycan array binding signal (z-score),Gal3S(b1-4)Glc6S,-0.125
same,glycan array binding signal (z-score),Gal3S(b1-4)GlcNAc,-0.163
same,glycan array binding signal (z-score),Gal3S(b1-4)GlcNAc6S,-0.052
